The full ranking holds about 33,000 sequences; the median of “E-score (dimensionless, -0.5 to 0.5)” is about -0.058, and the highest 2% start at about 0.35. The list shows a part of the results.
test system: MvaT; assay: PBM 8-mer E-score (mean of HK and ME arrays) (E-score (dimensionless, -0.5 to 0.5)); higher = stronger relative binding preference; most listed sequences are background and not binding sites
In short: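 Full-length P. aeruginosa MvaT, with glutathione S-transferase fused to its N-terminus (cloned into pTH6838 by isothermal assembly), was tested by protein binding microarray using a previously described protocol. Two universal double-stranded 60-mer arrays (ME and HK) were used, each with a constant 25-mer primer region and a variable 35-mer region covering all 8-mers. The rank-based 8-mer E-score (-0.5 to 0.5) is the mean of the two arrays, parsed with a custom Python script.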

Sequence	PBM 8-mer E-score
CTACGGCA	-0.206
GTCGTTCA	0.0471
ATTATCCA	0.246
GGTTTCTA	-0.099
CTGTGTTA	0.128
CACGTTAC	0.0428
CTTACTTA	0.316
GGTGTAAA	0.132
CTACACTA	0.0472
ATTAATCG	0.336
GGCTCTGA	-0.246
GTGGGGCA	-0.201
ATCACTTA	0.159
CTGTAGGC	-0.125
TCTCATCA	-0.108
AATTGTGG	0.163
ATAGTTAC	0.253
ACAGGTCG	-0.216
AACCAACC	0.014
GTAGTAGA	-0.0406
CAACAACA	0.186
CGCCAGCA	-0.211
TATATGCA	0.412
AGTACGAA	0.237
TAGTCGAA	0.0969

Sequence	PBM 8-mer E-score
CAGTGGAC	0.0119
CGGAGCAG	-0.117
ATGCCTCA	-0.153
GCTGGCGA	-0.258
ATTATAGC	0.282
CGGCGAGA	-0.172
ATGCCACC	-0.0986
CTACATAC	0.0913
ATGCGTAG	-0.144
ACGATACT	0.0587
CCTGCATC	-0.106
AATGCCAG	-0.0533
CCGCTAGA	-0.0325
GGGACTGA	-0.207
CTGGATGA	-0.128
AGAAAGCT	-0.0129
AGTAGGAG	-0.0489
GGGGTAAA	-0.0455
AGAAGGTG	-0.187
AGGAAGCG	-0.269
ACGGACCT	-0.277
GGCGGGCA	-0.183
AACAGTCC	-0.0431
AGATCGCA	-0.217
TCAGATAA	0.129

Sequence	PBM 8-mer E-score
AGGCATCA	-0.119
CGAAGAGA	-0.082
ACGCCCAG	-0.233
CGCCGACC	-0.275
CCGCACCC	-0.362
CTATACAG	0.00215
CGCACGAG	-0.245
AGTTCTTA	0.161
AAGACACT	-0.0975
AGGTCTGG	-0.101
ATATACCC	0.228
CGCGAGCG	-0.0493
ATGAGAAT	0.00921
GGTTATAC	0.0501
CACGTCTA	-0.133
CGGTGCGC	-0.18
CACTGCTC	-0.18
GTATGAAC	0.0873
AATCACTG	0.0985
GCACCCTA	-0.0451
AATCCGTA	0.0525
AATCTTTC	0.158
GACATACC	-0.0731
ACACTCGG	-0.0519
GCTGGGAC	-0.205

Sequence	PBM 8-mer E-score
ATACACTG	0.0549
CGATCGTC	-0.246
CCACAGTC	-0.186
CAGCGTAA	-0.0641
AAACATAT	0.361
AAACTGGA	0.0758
CATTACAA	0.166
TCAACCGA	-0.0506
CAGTATGG	-0.093
GTTGTGGA	0.138
CGAAAAAC	0.145
GGATGCAA	-0.0199
AAGTGCCA	-0.0898
CGAGCATA	0.0551
GTAACTGA	0.199
CAAGGCTC	-0.183
CCCGTCCC	-0.311
CCGAATCG	-0.0188
AGACCACA	-0.0662
AGAAGAGC	-0.105
ACTACGCG	-0.0273
GAACTGGC	-0.153
AATTATGT	0.366
AAACGTCG	-0.0425
GCAGTGGC	-0.129

Sequence	PBM 8-mer E-score
CACCAGTA	0.132
ACCGTTCC	-0.0982
CCGTGAGC	-0.17
AGAGACGA	-0.0812
ATAGGGGC	-0.0502
ATTAATAG	0.426
AGTCGCAA	0.0896
CTCAAAGC	-0.0834
CCCACCAA	-0.0922
AAGGCCCT	-0.239
TCACCTAA	-0.00816
CATTCGCA	0.0126
GAATGTGA	0.082
AGTTGGAA	0.144
AATCGGTA	0.0299
AGATCCAG	-0.095
ATCAGTTC	0.1
AATCGCGT	-0.00244
CTCCACTA	-0.0617
GAGAGCTC	-0.254
GAAAGCAA	-0.00289
ACACGATA	0.142
GACCTAAA	-0.0673
AGGTAGGA	-0.159
CTAGGGAG	-0.278

Sequence	PBM 8-mer E-score
TGGTCCAA	-0.114
AACCCCGA	-0.214
TGAGCGAA	-0.0163
GGGCCCCC	-0.302
ACCTTAGC	-0.0878
CCGTAAGA	0.024
CTAGAACA	0.0773
AACGTCGT	0.00036
GTGTAGTA	0.183
CTGGCTGA	-0.312
AGCGTACG	-0.209
AGGGTCAT	-0.103
CTTCACGA	-0.278
AGTATCGC	0.0389
AAAGAACT	0.233
GCATGGTA	-0.0267
CCATATGA	0.0677
ATAGAGGC	-0.0972
ATTCAGGA	0.0538
CGAACAAA	0.165
TATTCGCA	0.306
CTTTTCGA	0.0489
GTATCGAA	-0.0719
ATCTCCTG	-0.149
GACCTCAA	-0.134

Sequence	PBM 8-mer E-score
CAGCGAAG	-0.0198
CCCACCGC	0.000846
TCTCTAAA	-0.131
GCACGCCA	-0.165
ATTGTTCG	0.209
CAACCGAG	-0.149
GCTCGAAA	-0.0703
GCGGCGCC	-0.224
CCTCCTGC	-0.298
AACCTTGG	-0.174
CGCATTAA	0.188
ACCACCGA	-0.0393
CGACAAAA	0.228
CTGGACAA	-0.0325
CAACCCAG	-0.151
AGAGGACC	-0.191
CTTTTGGA	-0.0848
CCGATACC	-0.187
TCCAGAGA	-0.13
TCAATAAA	0.22
AGTGCGAT	0.119
TCTGCCCA	-0.179
GGTTTTGA	0.0286
GGTTCAGA	-0.252
ACCATCTC	-0.0746

Sequence	PBM 8-mer E-score
CCCTCACA	-0.151
GAGGTTGA	-0.185
CGGTTAAA	0.185
ACTGCATC	-0.0676
ATTATAAA	0.462
CCTAGCGA	-0.163
CAGACCAC	-0.118
TACCGAGA	-0.116
AAGCCCCG	-0.182
AATTTGAC	0.185
GACTCAGA	-0.118
GCAGAGAC	-0.251
GAGTACGC	-0.192
TTGAGCAA	0.0965
AATCCCTG	-0.0656
ATGAGGTG	0.00708
TGGACACA	-0.0605
GCAGGGTA	-0.137
AGTCGATG	-0.108
AAGCCAGT	0.0245
ACGATAAC	0.218
ACTACACT	0.196
ATCGCTCG	-0.0585
ACTGGAAC	0.0906
TTTATAAA	0.411

Sequence	PBM 8-mer E-score
GAGGCAAA	-0.068
CGATGATC	-0.0902
ATGTCACG	-0.0289
ACTCGCGG	-0.158
AGGGAGGC	-0.349
AAGACGAG	-0.0162
GTGGCCAC	-0.237
AGCGTTGA	-0.0483
GACGGTGC	-0.172
AGGGCGCC	-0.232
CATACGGC	-0.244
GATATAGA	0.206
AATCATCC	-0.227
AAACCGTA	-0.14
ATTCGCTA	0.115
CGATAGCA	-0.0638
ATGATCTA	-0.14
CTCATCAA	-0.0702
ACGGTTGG	-0.0398
CTCAACCA	-0.172
CGACCCCA	-0.232
AGGCTAGA	-0.132
CCTTCTAG	-0.098
CTGTCTGC	-0.135
ACCAGTAC	-0.0114

Sequence	PBM 8-mer E-score
ACTAGGCT	-0.105
CACGCACC	-0.225
AGTGGAAC	-0.0294
CTGGGTAC	-0.214
AGCGAACC	-0.0433
AGGTCACT	-0.188
ACGGTAGG	-0.138
TCCGTAGA	-0.0646
TAAACCTA	0.0436
CAGGCTTA	-0.142
CCGCTCTA	-0.0877
AGGAGGAC	-0.396
CATAGTTC	0.0955
CGAACACC	-0.0813
CAATGGGG	-0.0783
CTGGGGGA	-0.235
ATATAATC	0.415
AACCACGG	-0.089
GCATGGCC	-0.339
GCCTTCCC	-0.295
TCGTACGA	-0.073
CGGCATTA	0.122
ATTGGGCC	-0.222
CCCAGCGG	-0.35
ACAGTCCG	-0.108

Sequence	PBM 8-mer E-score
ACCCTATG	-0.0632
CGTATTAA	0.35
GCGGGGCC	-0.322
CAGCCCAC	-0.188
ACTCTCGA	-0.0374
AGCTAGGG	-0.32
CTTCTTAC	0.13
AAAGCTGT	0.0499
GCCAATAA	0.299
ACTAAGTC	0.0745
TATAAAGA	0.327
CCCGGCCC	-0.325
ACTATCGC	-0.0202
AACCTACC	-0.156
AACCATCC	-0.129
AATGAACG	-0.0946
AATACGAG	0.13
AACAAAAT	0.35
CAGGCTCC	-0.16
ACGGAAGA	-0.136
ATACACCG	0.0127
ATATTATA	0.477
ATTTAGAA	0.321
CCGTACCG	-0.26
CGGCCTGA	-0.228

Sequence	PBM 8-mer E-score
AAGCGGCC	-0.192
CTAGACCA	-0.219
CTGGTCAA	-0.151
CACGAGCG	-0.271
GGACCCAC	-0.163
CAGTGTAA	0.136
GGCACAAA	-0.0263
GACAAAGA	0.0678
CTACGACC	-0.278
AGCTCCGG	-0.267
CACTCCTC	-0.138
GAGGATGA	-0.209
AGACCATC	-0.15
CAGGTCTA	-0.0964
AACCATTA	0.184
AGGAGCTC	-0.204
CCGGTCTA	-0.152
AACGGAAA	0.0899
CAGGCCCG	-0.31
CACTCACG	-0.138
ACATACTG	0.122
ATAATACG	0.354
CGGTGCTC	-0.288
GTCCAGCA	-0.19
AGTCTCGA	0.0471

Sequence	PBM 8-mer E-score
CTTCTCCC	-0.188
AGAAATCG	-0.0832
GACTCATA	-0.0591
CGGCGCTC	-0.294
TCGCGTAA	0.139
CTGATACC	-0.125
CTAATGAA	0.132
AAAGATAG	0.2
AACGCATC	-0.0129
AAGTCTCA	0.0489
ACTAACAC	0.148
AGTTAAGC	0.0938
CGCGAAAA	0.213
CTTGGAGA	-0.135
CCTAATCG	-0.144
CTTTTGAA	0.129
CAGAGTCA	-0.133
TATTCCCA	0.295
AGATGGTC	0.000856
TATAGGGA	0.0895
CGGATCCG	-0.222
GGCCCTAA	-0.109
CTAGTCAG	-0.134
GCCGCGGA	-0.15
CGGGCAGC	-0.218

Sequence	PBM 8-mer E-score
CACCCGCG	-0.348
AGCCGTTA	0.0718
GCGGGTCA	-0.119
GAGACTAA	0.0618
ACATACCT	0.0235
GCGATTCC	-0.0999
GTACTGAC	0.0225
AAATTTGA	0.189
CTTACAAG	0.0714
AACGCTCT	-0.143
AGGAGGTC	-0.369
CAGCCCAG	-0.247
CCCCGTTA	0.0421
CGATCTTC	-0.0568
AACTACGG	0.0587
ATTGAAGG	-0.0342
CCTGTGAC	-0.181
AAGCTGAC	-0.251
CCGGCATC	-0.184

— the supplement of paper PMC4466236
